# Results taken from PubChem BioAssay AID757 (NMMLSC, 2007).
# Among all 190,000 compounds or so, about 520 (0.27%) were called active. Inconclusive means that the source gave no clear call. Such entries were picked first, then a sample of the others.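 The calls were made as follows: active = GTP binding activity at least 20 points away from the 100% control level, either lower or higher; inconclusive = compound flagged as likely green fluorescent, judged across all proteins; inactive = the rest.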
# Molecular target: Ras-related C3 botulinum toxin substrate 1 (Homo sapiens) (UniProt P63000)
# Experiment: wildtype Rac1 GTP binding modulators, primary screen, biochemical, GST-Rac1 beads, flow cytometry, multiplex (AID 757)
# Details: fluorescent GTP binding, at 10 µM, actives lie on both sides, 0 = cold GTP competed, 100 = untreated
row,SMILES,GTP binding activity (% of control)
1,CC(NC(=O)c1cccnc1)C(c1cccs1)N1CCOCC1 (stereo not given),inconclusive: 107%
2,Cc1ccc(-c2cccc(CN3CCN(C4CCN(C(C)C)CC4)C(CCO)C3)c2)o1 (stereo not given),inactive: 93%
3,CC1CCCCC1NC(=O)COC(=O)Cc1ccc(Br)cc1 (stereo not given),inconclusive: 99%
4,CC1(C)COC(/C=C/c2ccc([N+](=O)[O-])cc2)=N1,inconclusive: 105%
5,CC(OC(=O)c1nsc(Cl)c1Cl)C(=O)NCc1ccc2c(c1)OCO2 (stereo not given),inconclusive: 86%
6,Cc1ccc(S(=O)(=O)N(CC#N)CC#N)cc1,inactive: 101%
7,Cc1cc(=O)oc2cc(OCC(=O)OCC(=O)Nc3c(C)n(C)n(-c4ccccc4)c3=O)ccc12,inactive: 94%
8,COC(=O)c1ccc(CSc2nnc(-c3ccncc3)n2Cc2ccccc2)o1,inconclusive: 105%
9,O=C(CCN1C(=O)C2CCCCC2C1=O)Nc1ccc(F)c(F)c1F (stereo not given),inactive: 98%
10,COCCCn1c(SCc2cc(=O)[nH]c3ccccc23)nnc1-c1ccco1,inconclusive: 97%
11,O=C(Nc1ccc(Cl)cc1C(F)(F)F)c1ccccc1,inactive: 103%
12,CC(=O)c1ccc(NC(=O)CSc2nnc(NC(=O)CN3CCOCC3)s2)cc1,inconclusive: 103%
13,C/C(=N\NC(=O)c1cccc(C)c1)c1ccc(N2CCOCC2)cc1,inconclusive: 96%
14,CC1CCN(CCOc2ccc(OCc3ccccc3)cc2)CC1,inactive: 103%
15,COc1cccc(C(=O)CN(C(=O)c2ccc(Cl)cc2Cl)N2C(=O)c3ccccc3C2=O)c1,inactive: 103%
16,O=C(CNC(=O)C1CCCCC1)OCC(=O)c1ccc(Cl)s1,inconclusive: 93%
17,Cc1ccccc1CSc1nnc(C)c(=O)n1N,inactive: 94%
18,COCc1cc(C)nc(OCC(=O)N/N=C/c2ccc(O)cc2O)c1C#N,inconclusive: 90%
19,c1ccc(C2CC(c3ccccc3)n3c(nc4ccccc43)N2)cc1 (stereo not given),inactive: 100%
20,O/N=C1\CCCC\C1=C/c1ccccc1,inactive: 99%

row,SMILES,GTP binding activity (% of control)
1,CC(C)C(c1nnnn1Cc1cccs1)N1CCN(C(=O)c2ccco2)CC1 (stereo not given),inactive: 101%
2,CC(C(=O)NCC1CCCCC1)N1CCc2ccccc2C1 (stereo not given),inconclusive: 93%
3,Cc1cc(NC(=O)c2ccccc2)nc2c1c(=O)oc1ccccc12,inconclusive: 86%
4,O=C1CC(Cc2ccccc2)C(=O)N1CCCn1ccnc1 (stereo not given),inconclusive: 102%
5,CCCCCCSc1nc(O)c(C2OC(=O)c3c2ccc(OC)c3OC)c(=O)n1-c1ccccc1 (stereo not given),inactive: 99%
6,CC(Nn1cnnc1)c1cc(Cl)ccc1O (stereo not given),inconclusive: 87%
7,COc1ccc(C(=O)/C=C/Nc2ccc(S(=O)(=O)Nc3nc(C)cc(C)n3)cc2)cc1OC,active: 79%
8,CC(=O)N1CCC(N(CCN2CCOCC2)C(=S)Nc2cc(C)ccc2C)CC1,inconclusive: 107%
9,COc1cc(/C=N/Nc2ccc(F)cc2F)cc(OC)c1OC,inactive: 101%
10,Cc1nn2c(N)csc2nc1=O,inconclusive: 81%
11,O=C(NCCO)Nc1ccc2nc(-c3ccco3)c(-c3ccco3)nc2c1,inconclusive: 83%
12,CC(C)NC(=O)COC(=O)c1ccccc1Oc1ccccc1,inconclusive: 105%
13,COC(=O)c1cc(=O)c2c([N+](=O)[O-])ccc(OC)c2o1,inconclusive: 86%
14,CSc1cccc(NC(=S)N(CCN(C)C)C(C)c2ccccn2)c1 (stereo not given),inconclusive: 91%
15,COc1ccc(CNC(=O)C(c2ccc(C)o2)N(Cc2cccs2)C(=O)Cc2cccs2)cc1 (stereo not given),inactive: 102%
16,O=C(NC1CCCC1)C1CC(=O)N(C2CCCCCCC2)C1 (stereo not given),inconclusive: 101%
17,COc1ccc(C2CC3CC(c4ccccc4)N2O3)cc1 (stereo not given),inconclusive: 112%
18,CC1(C)Cc2c(sc3c2C2=NCCN2C=N3)CS1,active: 123% [activator]
19,COc1ccc2cc(CN(Cc3ccco3)C(=S)NCC3CCCO3)c(=O)[nH]c2c1 (stereo not given),inconclusive: 96%
20,O=C1N(c2cccc3ccccc23)C(c2ccccc2)N2CCCN12 (stereo not given),inconclusive: 103%

row,SMILES,GTP binding activity (% of control)
1,O=C(COC(=O)CNS(=O)(=O)c1ccccc1)Nc1ccc(Cl)cn1,inconclusive: 108%
2,Cc1cc(C)cc(NC(=O)C2CCCN2/C=C/C(=O)C(F)(F)F)c1 (stereo not given),inactive: 107%
3,Cc1ccnc(NC(=S)NC(=O)/C=C/c2ccc(Cl)cc2)c1,inactive: 105%
4,CCOC(=O)COc1ccc(C(=O)CC)cc1OC,inactive: 99%
5,C=CCn1c(O)c(N=NC(=O)c2ccccc2NS(=O)(=O)c2cccs2)c2ccccc21,inactive: 92%
6,CCOC(=O)COc1ccc(Br)cc1/C=C/c1[nH]c(=O)[nH]c(=O)c1[N+](=O)[O-],inactive: 83%
7,N#Cc1cc(-c2ccccc2)nnc1Oc1ccccc1Cl,inconclusive: 93%
8,COc1ccc(-c2nc(C#N)c(N3CCN(c4ccccc4)CC3)o2)cc1,inconclusive: 97%
9,Cc1ccc(OCCSc2nc(N)cc(N)n2)cc1,inconclusive: 89%
10,CC(=O)N1CCC(N(CCCOC(C)C)C(=O)Nc2ccc(C)c(C)c2)CC1,inconclusive: 93%
11,CCOc1ccc(NC(=S)N2CCN(CCN3C(=O)c4cccc5cccc(c45)C3=O)CC2)cc1,inconclusive: 90%
12,CCOc1cc(-c2nc(-c3ccccc3OC)no2)cc(OCC)c1OCC,inconclusive: 105%
13,CCCOc1ccc(N2C(=O)CC(SCCN)C2=O)cc1 (stereo not given),inconclusive: 106%
14,COc1cc(C(=O)OCC(=O)Nc2ccc3c(c2)OC(F)(F)O3)ccc1OCc1c(C)noc1C,active: 39%
15,Fc1ccc(CSc2ccc3nnc(-c4cccnc4)n3n2)cc1,inconclusive: 88%
16,CC(C)CNC(=O)COC(=O)CNC(=O)c1cc(Cl)cc([N+](=O)[O-])c1,inconclusive: 106%
17,O=C(c1cc(F)ccc1F)C1CCCN(C(=O)CCc2cnccn2)C1 (stereo not given),inconclusive: 100%
18,CCC(=O)Oc1ccc(C(=O)Nc2ccc3c(c2)C(=O)N(C2CCCCC2)C3=O)cc1,inconclusive: 99%
19,COC(CNC(=O)C1CCCN1C(=O)OCc1ccccc1)OC (stereo not given),active: 121% [activator]
20,N#Cc1c2c(c(-c3ccccc3Cl)[nH]c1=S)CCCC2,inactive: 80%
